A collection of fitness landscapes (doi:10.1016/j.celrep.2020.107928)
The full ranking holds about 81,000 sequences; the median of “one-hybrid fitness for binding NBS DNA” is about -0.1, and the highest 2% start at about 0.36. This is one part of the list.

B1: Caulobacter ParB omega fusion; a variant is named by its letters at X, in order, B8GW30 (parent)
chain: MESVVVGEPGMSEGRRGLGRGLSALLGEVDAAPAQAPGEQLGGSREAPIEILQRNPDQPRRTFREEDLEDLSNSIREKGVLQPILVRPSPDTAGEYQIVAGERAWRAAQRAGLKTVPIMVRELDDLAVLEIGIIENVQRADLNVLEEALSYKVLMEKFERTQENIAQTIGKSXSHVANXMRLLXLPDEVQSYLVSGELTAXHARAIAAAADPVALAKQIIEGGLSVRETEALARKAPNLSAGKSKGGRPPRVKDTDTQALESDLSSVLGLDVSIDHRGSTGTLTITYATLEQLDDLCNRLTRGI

Variants of: B1
Assay: one-hybrid fitness for binding NBS DNA (the Noc-binding site; scaled: cognate 1, non-cognate 0); higher = stronger binding
Conditions: with NBS DNA site
How it was run: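 Selection: bacterial one-hybrid in E. coli USO, HIS3 reporter with the site 19 bp from the promoter, 48 hours at 37°C on M9-minus-histidine plus 0.1 mM IPTG and 5 mM 3-AT. Libraries were Caulobacter ParB with four randomised specificity codons, sequenced on Illumina before and after selection. Fitness is the rescaled log change in variant-to-wild-type read ratio, anchored to the cognate and non-cognate sites.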

one-hybrid fitness for binding NBS DNA, ≤ 0.2:
DVAF
LQEQ
VNKT
AMFS
GEND
HHDA
RVLA
ICSG
HQMY
CARV
YAHR
GKMV
QNGR
CILS
QDVV
PPDG
YTHG
TTQI
RILL
IRKM
GWPT
KPNH
AECT
LYDT
NGWW
SGNV
RHLM
LTES
PDNR
YATR
PSSD
ACGT
ALVG
AVIC
TQES
QETT
PWGP
RCQV
TPHN
KAQV
LTPM
RAII
LSFN
CHRA
SQMR
PKQM
QTQN
AKNT
VGTL
DPIR
NQMR
HFYR
PRLE
FSYV
KWLT
SQGS
WVVG
GTAE
ITCD
NCCS
RMVV
ELVG
KLKQ
QHAP
INKS
SRAN
AKFS
LFDP
RFRG
NTNC
STKP
FRGV
KNMR
QTWQ
YKNG
FSLL
DDQG
SMDE
PQHI
TANS
MVAN
LIVR
ANYV

one-hybrid fitness for binding NBS DNA, 0.565:
KRFT
